The source of these data is publication PMC4336329 (PLoS ONE, 2015).

Out of some 310,000 compounds screened, about 2,200 (0.71%) showed an effect of 50% or more. The effect is printed as a negative number. The list shows a part of the results.

In this experiment the target is human ether-à-go-go-related gene (hERG) potassium channel (human, UniProt Q12809). Kind of experiment: primary screen, population patch clamp on CHO cells stably expressing hERG.
human ether-à-go-go-related gene (hERG) potassium channel, sequence (Q12809 whole entry, looked up): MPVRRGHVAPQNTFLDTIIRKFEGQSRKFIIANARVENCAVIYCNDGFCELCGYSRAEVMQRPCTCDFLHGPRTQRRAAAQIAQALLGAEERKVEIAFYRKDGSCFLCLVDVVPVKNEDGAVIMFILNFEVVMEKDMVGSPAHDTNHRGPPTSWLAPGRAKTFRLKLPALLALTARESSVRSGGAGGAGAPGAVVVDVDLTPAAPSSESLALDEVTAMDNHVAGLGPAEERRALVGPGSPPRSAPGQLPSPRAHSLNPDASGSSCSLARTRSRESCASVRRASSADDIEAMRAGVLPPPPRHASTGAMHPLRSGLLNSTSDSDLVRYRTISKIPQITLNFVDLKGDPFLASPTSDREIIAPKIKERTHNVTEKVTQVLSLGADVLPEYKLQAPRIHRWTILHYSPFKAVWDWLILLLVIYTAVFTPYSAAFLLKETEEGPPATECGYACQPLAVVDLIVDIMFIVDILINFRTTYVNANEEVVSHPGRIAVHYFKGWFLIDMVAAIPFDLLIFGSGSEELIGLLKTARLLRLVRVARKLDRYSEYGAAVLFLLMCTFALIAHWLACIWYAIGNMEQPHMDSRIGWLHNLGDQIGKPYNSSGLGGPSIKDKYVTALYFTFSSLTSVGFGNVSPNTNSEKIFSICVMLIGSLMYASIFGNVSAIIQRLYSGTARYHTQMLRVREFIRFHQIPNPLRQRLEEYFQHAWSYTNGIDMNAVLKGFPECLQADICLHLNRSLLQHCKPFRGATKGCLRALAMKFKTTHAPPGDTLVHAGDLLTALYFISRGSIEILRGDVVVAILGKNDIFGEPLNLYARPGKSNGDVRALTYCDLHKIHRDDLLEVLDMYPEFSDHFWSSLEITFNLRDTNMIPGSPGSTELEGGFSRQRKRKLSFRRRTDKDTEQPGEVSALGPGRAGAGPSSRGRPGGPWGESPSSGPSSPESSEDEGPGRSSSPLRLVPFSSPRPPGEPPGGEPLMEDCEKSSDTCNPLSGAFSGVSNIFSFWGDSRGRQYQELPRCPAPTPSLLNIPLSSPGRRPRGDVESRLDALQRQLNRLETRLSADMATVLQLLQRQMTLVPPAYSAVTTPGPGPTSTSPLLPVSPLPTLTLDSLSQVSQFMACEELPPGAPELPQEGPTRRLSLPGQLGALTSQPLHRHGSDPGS
With `O=C(COc1ccccc1)Nc1ccc2oc(=O)ccc2c1`, the “hERG current change (%, negative = inhibition) at 1uM” value is recorded as -4.97%.

Turning to `O=C(OCn1nnc2ccccc2c1=O)c1cn(-c2ccccc2)nc1-c1cccnc1`, the “hERG current change (%, negative = inhibition) at 1uM” value was 10.9%.

Turning to `COCCCNC(=S)N1CCCN(c2nc3cc(C)c(C)cc3cc2C#N)CC1`, the “hERG current change (%, negative = inhibition) at 1uM” value stood at 17.7%.

Consider `CCOc1ccc(N=Cc2c(O)cc(C)oc2=O)cc1`, for which the “hERG current change (%, negative = inhibition) at 1uM” value was 8.98%.

With `Cc1ccc(C(NC(=O)NN2CCN(C)CC2)C(Cl)Cl)cc1F` (stereo not drawn), the “hERG current change (%, negative = inhibition) at 1uM” value is 10%.

As to `CC(=O)OC1COC(n2c(O)c(N=NC(N)=S)c3ccccc32)C(OC(C)=O)C1OC(C)=O` (stereo not drawn), the “hERG current change (%, negative = inhibition) at 1uM” value worked out at 16.7%.

Regarding `O=C(Oc1ccc(Br)cc1)c1n[nH]c(=O)c2ccccc12`, the “hERG current change (%, negative = inhibition) at 1uM” value is 1.13%.

For the compound `CCOC(=O)c1c(-c2ccc(OC)cc2)csc1/N=C/N(C)C`, the “hERG current change (%, negative = inhibition) at 1uM” value came out at 7.88%.

For `Cc1oncc1-c1cn2ccccc2n1`, the “hERG current change (%, negative = inhibition) at 1uM” value stood at 6.93%.

`NS(=O)(=O)c1ccc2nc(NC(=O)c3ccc(Br)o3)sc2c1`: the “hERG current change (%, negative = inhibition) at 1uM” value stood at 6.62%.

Consider `COc1cc(/C=C2/SC(=S)N(Cc3ccccc3)C2=O)cc(OC)c1O`, for which the “hERG current change (%, negative = inhibition) at 1uM” value came out at 10.7%.

As for `Cc1ccnc(-n2c(C)nc3ccccc3c2=O)c1`, the “hERG current change (%, negative = inhibition) at 1uM” value is recorded as 9.28%.

Consider `CSc1ccc(/C=C/C(=O)c2ccc(NC(=O)C(C)C)cc2)cc1`, for which the “hERG current change (%, negative = inhibition) at 1uM” value was 3.02%.

For the compound `O=C(CCS(=O)(=O)c1ccccc1)Nc1nc(-c2cccs2)cs1`, the “hERG current change (%, negative = inhibition) at 1uM” value is recorded as -3.34%.

As for `CCCC(=O)C1=C(O)C(C(=O)OC)C(C)(C)CC1=NC(C)(C)C` (stereo not drawn), the “hERG current change (%, negative = inhibition) at 1uM” value turned out to be 3.44%.

Regarding `COc1ccc(OC)c(Nc2nc3ccccc3n3cnnc23)c1`, the “hERG current change (%, negative = inhibition) at 1uM” value came out at 7.2%.

For `Cc1ccc(C2(CC(=O)N3CCCC3)CCOC(C(C)C)C2)cc1` (stereo not drawn), the “hERG current change (%, negative = inhibition) at 1uM” value came out at 2.04%.

On to `CC1=C(C(=O)OC(C)C)C(c2cccs2)NC(=S)N1` (stereo not drawn), for which the “hERG current change (%, negative = inhibition) at 1uM” value was 5.54%.

As for `COc1cccc(NC(=O)Cn2c(=O)oc3cc(S(=O)(=O)N4CCCC4)ccc32)c1`, the “hERG current change (%, negative = inhibition) at 1uM” value came to 11.7%.

In the case of `CC(=O)Nc1ccc(OCC(O)CN2CCN(c3ccc(F)cc3)CC2)cc1` (stereo not drawn), the “hERG current change (%, negative = inhibition) at 1uM” value is reported as -0.53%.

Consider `COc1ccc(CC(=O)OCC(=O)N2CCCC(C)C2)cc1` (stereo not drawn), for which the “hERG current change (%, negative = inhibition) at 1uM” value is given as 16.6%.

For `CC1=CC(=C2C(=O)c3ccccc3C2=O)C=C(C)N1C`, the “hERG current change (%, negative = inhibition) at 1uM” value is 5.54%.

For `C/C=C\C=C/C(=O)Nc1cccc(C2=NOC3(C2)C[C@@H](C(N)=O)N(C(=O)[C@H]2CCC(=O)N2)C3)c1` (stereo partly drawn), the “hERG current change (%, negative = inhibition) at 1uM” value was 15%.

On to `O=C1c2ccccc2NC(c2ccc(-c3ccc(Br)cc3)o2)N1O` (stereo not drawn), for which the “hERG current change (%, negative = inhibition) at 1uM” value is -7.19%.

Turning to `CCOC(=O)C1=C(COC(=O)c2cccs2)NC(=O)NC1C` (stereo not drawn), the “hERG current change (%, negative = inhibition) at 1uM” value is listed as 14.1%.

For `Cc1cccc(N2C(=O)CC(N3CCN(Cc4ccc5c(c4)OCO5)CC3)C2=O)c1` (stereo not drawn), the “hERG current change (%, negative = inhibition) at 1uM” value was determined as 1.76%.

Regarding `c1ccc2c(c1)C(=NC1CCCCC1)NC2=NC1CCCCC1`, the “hERG current change (%, negative = inhibition) at 1uM” value was 2.62%.

In the case of `Fc1ccc(OCc2nn3cnnc3s2)cc1`, the “hERG current change (%, negative = inhibition) at 1uM” value came to 7.16%.

As to `CNC(=O)CSc1nnc(-c2cccc(S(=O)(=O)N3CCOCC3)c2)n1-c1ccc(F)cc1`, the “hERG current change (%, negative = inhibition) at 1uM” value was determined as 11.4%.

As for `c1ccc2c(c1)CC(N1CCCCC1)c1ccccc1N2` (stereo not drawn), the “hERG current change (%, negative = inhibition) at 1uM” value is given as -0.156%.

In the case of `CC(O)c1nc2ccccc2n1C/C=C/c1ccccc1` (stereo not drawn), the “hERG current change (%, negative = inhibition) at 1uM” value is recorded as -3.88%.

On to `COc1ccc(C(=O)NC(=S)Nc2ccc(S(=O)(=O)Nc3cc(C)on3)cc2)cc1OC`, for which the “hERG current change (%, negative = inhibition) at 1uM” value was 11.1%.

Consider `COc1ccc(Cc2nccc3cc(OC)c(OC)cc23)cc1OC.Cl`, for which the “hERG current change (%, negative = inhibition) at 1uM” value stood at 10.8%.

In the case of `Cc1ccc(NC(=O)N(C2=NCC(C)S2)c2ccccc2)cc1` (stereo not drawn), the “hERG current change (%, negative = inhibition) at 1uM” value was found to be 10.9%.

With `COC(=O)c1ccc(CNC(=O)C2CCC(=O)N(Cc3cccc(F)c3)C2)cc1` (stereo not drawn), the “hERG current change (%, negative = inhibition) at 1uM” value was determined as 7.94%.

Turning to `COc1ccc(NC(=O)c2cc(C)on2)cc1OC`, the “hERG current change (%, negative = inhibition) at 1uM” value is given as -0.779%.

For `Cc1nc2ccc(Br)cc2c2c1CC(CO)O2` (stereo not drawn), the “hERG current change (%, negative = inhibition) at 1uM” value worked out at 15.9%.

Regarding `CSc1ccc(/C=c2\s/c(=C\C(=O)C(C)(C)C)n(CC(=O)NCCC3=CCCCC3)c2=O)cc1`, the “hERG current change (%, negative = inhibition) at 1uM” value is recorded as -3.41%.

Turning to `O=C(c1ccco1)N1CCN(Cc2cc(=O)oc3cc(O)ccc23)CC1`, the “hERG current change (%, negative = inhibition) at 1uM” value was -45%.

For `COc1cc(=O)[nH]c(=O)n1CC(=O)c1ccccc1`, the “hERG current change (%, negative = inhibition) at 1uM” value is given as 8.76%.

Take `O=S(=O)(Cc1ccccc1)N1CCCCC1`: the “hERG current change (%, negative = inhibition) at 1uM” value is 12.3%.

For `COC(=O)C1=CN(c2cccc(C(F)(F)F)c2)C=C(C(=O)OC)C1c1ccc(O)c(OC)c1`, the “hERG current change (%, negative = inhibition) at 1uM” value was 9.11%.

With `COc1cc(C(=O)NC(=S)Nc2ccc([N+](=O)[O-])cc2)cc(OC)c1OC`, the “hERG current change (%, negative = inhibition) at 1uM” value was 7.73%.

As for `Cc1cc(C)n(-c2nc3ccccc3s2)n1`, the “hERG current change (%, negative = inhibition) at 1uM” value is recorded as -2.02%.

Turning to `COc1ccccc1C(=O)NC(=O)COC(=O)c1cccc(C)c1O`, the “hERG current change (%, negative = inhibition) at 1uM” value was 21.3%.
